In article PMC12820563, “FoxP3 forms a head-to-head dimer in vivo and stabilizes its multimerization on adjacent microsatellites”:
Some of the results follow.

target: T1, MBP-FoxP1dN (Mus musculus, UniProt P58462 326-579); assay: PD-seq (MBP pull-down with sequencing); 20 mM Tris-HCl pH 7.5, 100 mM NaCl, 1.5 mM MgCl2, 0.4 uM protein, 0.1 uM dsDNA library, 30 min, room temperature, amylose pull-down; high values mean tight binding; settings: protein: recombinant; tags: His6-MBP; chain copies: 2; dsDNA, one strand shown
T1 sequence: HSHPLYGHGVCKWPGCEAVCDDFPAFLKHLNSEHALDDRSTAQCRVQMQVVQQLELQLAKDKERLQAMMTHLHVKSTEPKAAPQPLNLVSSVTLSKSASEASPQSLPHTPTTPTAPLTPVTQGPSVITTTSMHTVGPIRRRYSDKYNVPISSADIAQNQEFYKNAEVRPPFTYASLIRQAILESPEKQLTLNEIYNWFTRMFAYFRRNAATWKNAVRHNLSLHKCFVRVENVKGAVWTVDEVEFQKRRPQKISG
Method in brief: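 Binding is the reads-per-million enrichment of pull-down relative to input, pooled across replicates. For this, 0.4 µM His6-MBP-tagged mouse FoxP3 or FoxP1 fragment lacking the N-terminus, made in E. coli, was incubated with 0.1 µM Klenow-filled double-stranded degenerate DNA library for 30 min at room temperature in Tris pH 7.5 buffer with NaCl and MgCl2. Complexes bound to amylose resin were washed three times before proteinase K released the DNA for PCR barcoding and Illumina sequencing.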

| Sequence | binding signal |
| --- | --- |
| GATGATTGTTCTCCCAGCTGATGAATTAATGGTTTCGAGTAAACAAATTTTCCTAATCTTTCTGTTCAAGCGCCATCTAC | 1.05 RPM ratio (pull-down/input) |
| GATGATTGTTCTCCCAGCTGATGAATTCCGACTGTCGAGTAAACAAATTTTCCTAATCTTTCTGTTCAAGCGCCATCTAC | 0.861 RPM ratio (pull-down/input) |
| GATGATTGTTCTCCCAGCTGATGAATTATTCCCATCGAGTAAACAAATTTTCCTAATCTTTCTGTTCAAGCGCCATCTAC | 1.07 RPM ratio (pull-down/input) |
| GATGATTGTTCTCCCAGCTGATGAATTAGTTAACTCGAGTAAACAAATTTTCCTAATCTTTCTGTTCAAGCGCCATCTAC | 0.93 RPM ratio (pull-down/input) |
| GATGATTGTTCTCCCAGCTGATGAATTGTTTGAATCGAGTAAACAAATTTTCCTAATCTTTCTGTTCAAGCGCCATCTAC | 1.35 RPM ratio (pull-down/input) |
| GATGATTGTTCTCCCAGCTGATGAATTAGGGAGCTCGAGTAAACAAATTTTCCTAATCTTTCTGTTCAAGCGCCATCTAC | 0.829 RPM ratio (pull-down/input) |
| GATGATTGTTCTCCCAGCTGATGAATTCGGGGTCTCGAGTAAACAAATTTTCCTAATCTTTCTGTTCAAGCGCCATCTAC | 0.803 RPM ratio (pull-down/input) |
| GATGATTGTTCTCCCAGCTGATGAATTCAAACGATCGAGTAAACAAATTTTCCTAATCTTTCTGTTCAAGCGCCATCTAC | 0.892 RPM ratio (pull-down/input) |
| GATGATTGTTCTCCCAGCTGATGAATTCTTTGACTCGAGTAAACAAATTTTCCTAATCTTTCTGTTCAAGCGCCATCTAC | 0.864 RPM ratio (pull-down/input) |
| GATGATTGTTCTCCCAGCTGATGAATTGGATAGGTCGAGTAAACAAATTTTCCTAATCTTTCTGTTCAAGCGCCATCTAC | 0.763 RPM ratio (pull-down/input) |
| GATGATTGTTCTCCCAGCTGATGAATTAGCAGTTTCGAGTAAACAAATTTTCCTAATCTTTCTGTTCAAGCGCCATCTAC | 0.913 RPM ratio (pull-down/input) |
| GATGATTGTTCTCCCAGCTGATGAATTAAGCATGTCGAGTAAACAAATTTTCCTAATCTTTCTGTTCAAGCGCCATCTAC | 0.983 RPM ratio (pull-down/input) |
| GATGATTGTTCTCCCAGCTGATGAATTTATGATGTCGAGTAAACAAATTTTCCTAATCTTTCTGTTCAAGCGCCATCTAC | 1.51 RPM ratio (pull-down/input) |
| GATGATTGTTCTCCCAGCTGATGAATTCCTCCTATCGAGTAAACAAATTTTCCTAATCTTTCTGTTCAAGCGCCATCTAC | 0.878 RPM ratio (pull-down/input) |
| GATGATTGTTCTCCCAGCTGATGAATTCTGAACGTCGAGTAAACAAATTTTCCTAATCTTTCTGTTCAAGCGCCATCTAC | 0.807 RPM ratio (pull-down/input) |
| GATGATTGTTCTCCCAGCTGATGAATTGTCATCCTCGAGTAAACAAATTTTCCTAATCTTTCTGTTCAAGCGCCATCTAC | 1.11 RPM ratio (pull-down/input) |
| GATGATTGTTCTCCCAGCTGATGAATTACCTCGCTCGAGTAAACAAATTTTCCTAATCTTTCTGTTCAAGCGCCATCTAC | 0.926 RPM ratio (pull-down/input) |
| GATGATTGTTCTCCCAGCTGATGAATTGATGAAATCGAGTAAACAAATTTTCCTAATCTTTCTGTTCAAGCGCCATCTAC | 1.16 RPM ratio (pull-down/input) |
| GATGATTGTTCTCCCAGCTGATGAATTAACGCCCTCGAGTAAACAAATTTTCCTAATCTTTCTGTTCAAGCGCCATCTAC | 0.873 RPM ratio (pull-down/input) |
| GATGATTGTTCTCCCAGCTGATGAATTGCCCGGTTCGAGTAAACAAATTTTCCTAATCTTTCTGTTCAAGCGCCATCTAC | 0.904 RPM ratio (pull-down/input) |
| GATGATTGTTCTCCCAGCTGATGAATTGGATACCTCGAGTAAACAAATTTTCCTAATCTTTCTGTTCAAGCGCCATCTAC | 0.93 RPM ratio (pull-down/input) |

| Sequence | binding signal |
| --- | --- |
| GATGATTGTTCTCCCAGCTGATGAATTTTATGCGTCGAGTAAACAAATTTTCCTAATCTTTCTGTTCAAGCGCCATCTAC | 1.12 RPM ratio (pull-down/input) |
| GATGATTGTTCTCCCAGCTGATGAATTGTATGATTCGAGTAAACAAATTTTCCTAATCTTTCTGTTCAAGCGCCATCTAC | 1.1 RPM ratio (pull-down/input) |
| GATGATTGTTCTCCCAGCTGATGAATTCCGAAAGTCGAGTAAACAAATTTTCCTAATCTTTCTGTTCAAGCGCCATCTAC | 0.842 RPM ratio (pull-down/input) |
| GATGATTGTTCTCCCAGCTGATGAATTCCACTTATCGAGTAAACAAATTTTCCTAATCTTTCTGTTCAAGCGCCATCTAC | 0.973 RPM ratio (pull-down/input) |
| GATGATTGTTCTCCCAGCTGATGAATTGGTCTGGTCGAGTAAACAAATTTTCCTAATCTTTCTGTTCAAGCGCCATCTAC | 0.807 RPM ratio (pull-down/input) |
| GATGATTGTTCTCCCAGCTGATGAATTGCGTTCATCGAGTAAACAAATTTTCCTAATCTTTCTGTTCAAGCGCCATCTAC | 1.14 RPM ratio (pull-down/input) |
| GATGATTGTTCTCCCAGCTGATGAATTAGTTGCATCGAGTAAACAAATTTTCCTAATCTTTCTGTTCAAGCGCCATCTAC | 1.65 RPM ratio (pull-down/input) |
| GATGATTGTTCTCCCAGCTGATGAATTTTCCTGATCGAGTAAACAAATTTTCCTAATCTTTCTGTTCAAGCGCCATCTAC | 0.846 RPM ratio (pull-down/input) |
| GATGATTGTTCTCCCAGCTGATGAATTACATTCATCGAGTAAACAAATTTTCCTAATCTTTCTGTTCAAGCGCCATCTAC | 1.17 RPM ratio (pull-down/input) |
| GATGATTGTTCTCCCAGCTGATGAATTATGCACTTCGAGTAAACAAATTTTCCTAATCTTTCTGTTCAAGCGCCATCTAC | 1.12 RPM ratio (pull-down/input) |
| GATGATTGTTCTCCCAGCTGATGAATTCAATTGGTCGAGTAAACAAATTTTCCTAATCTTTCTGTTCAAGCGCCATCTAC | 0.898 RPM ratio (pull-down/input) |
| GATGATTGTTCTCCCAGCTGATGAATTGCACACGTCGAGTAAACAAATTTTCCTAATCTTTCTGTTCAAGCGCCATCTAC | 1.05 RPM ratio (pull-down/input) |
| GATGATTGTTCTCCCAGCTGATGAATTTCCAGGTTCGAGTAAACAAATTTTCCTAATCTTTCTGTTCAAGCGCCATCTAC | 0.791 RPM ratio (pull-down/input) |
| GATGATTGTTCTCCCAGCTGATGAATTAGTCTAGTCGAGTAAACAAATTTTCCTAATCTTTCTGTTCAAGCGCCATCTAC | 0.871 RPM ratio (pull-down/input) |
| GATGATTGTTCTCCCAGCTGATGAATTTGAGGGCTCGAGTAAACAAATTTTCCTAATCTTTCTGTTCAAGCGCCATCTAC | 0.723 RPM ratio (pull-down/input) |
| GATGATTGTTCTCCCAGCTGATGAATTAACCTACTCGAGTAAACAAATTTTCCTAATCTTTCTGTTCAAGCGCCATCTAC | 0.827 RPM ratio (pull-down/input) |
| GATGATTGTTCTCCCAGCTGATGAATTACAATCATCGAGTAAACAAATTTTCCTAATCTTTCTGTTCAAGCGCCATCTAC | 1.57 RPM ratio (pull-down/input) |
| GATGATTGTTCTCCCAGCTGATGAATTCTGGACTTCGAGTAAACAAATTTTCCTAATCTTTCTGTTCAAGCGCCATCTAC | 0.79 RPM ratio (pull-down/input) |
| GATGATTGTTCTCCCAGCTGATGAATTCCCCGAATCGAGTAAACAAATTTTCCTAATCTTTCTGTTCAAGCGCCATCTAC | 0.9 RPM ratio (pull-down/input) |
| GATGATTGTTCTCCCAGCTGATGAATTCTACACATCGAGTAAACAAATTTTCCTAATCTTTCTGTTCAAGCGCCATCTAC | 1.06 RPM ratio (pull-down/input) |
| GATGATTGTTCTCCCAGCTGATGAATTGGAAAGATCGAGTAAACAAATTTTCCTAATCTTTCTGTTCAAGCGCCATCTAC | 0.916 RPM ratio (pull-down/input) |

| Sequence | binding signal |
| --- | --- |
| GATGATTGTTCTCCCAGCTGATGAATTTTGGATGTCGAGTAAACAAATTTTCCTAATCTTTCTGTTCAAGCGCCATCTAC | 0.849 RPM ratio (pull-down/input) |
| GATGATTGTTCTCCCAGCTGATGAATTAGTCGGATCGAGTAAACAAATTTTCCTAATCTTTCTGTTCAAGCGCCATCTAC | 0.912 RPM ratio (pull-down/input) |
| GATGATTGTTCTCCCAGCTGATGAATTTTGTGTGTCGAGTAAACAAATTTTCCTAATCTTTCTGTTCAAGCGCCATCTAC | 1.48 RPM ratio (pull-down/input) |
| GATGATTGTTCTCCCAGCTGATGAATTCGCGGCCTCGAGTAAACAAATTTTCCTAATCTTTCTGTTCAAGCGCCATCTAC | 0.811 RPM ratio (pull-down/input) |
| GATGATTGTTCTCCCAGCTGATGAATTCCATCCTTCGAGTAAACAAATTTTCCTAATCTTTCTGTTCAAGCGCCATCTAC | 0.855 RPM ratio (pull-down/input) |
| GATGATTGTTCTCCCAGCTGATGAATTGCAGAGTTCGAGTAAACAAATTTTCCTAATCTTTCTGTTCAAGCGCCATCTAC | 1.09 RPM ratio (pull-down/input) |
| GATGATTGTTCTCCCAGCTGATGAATTGTTGTGTTCGAGTAAACAAATTTTCCTAATCTTTCTGTTCAAGCGCCATCTAC | 2.57 RPM ratio (pull-down/input) |
| GATGATTGTTCTCCCAGCTGATGAATTAGGGTCATCGAGTAAACAAATTTTCCTAATCTTTCTGTTCAAGCGCCATCTAC | 0.943 RPM ratio (pull-down/input) |
| GATGATTGTTCTCCCAGCTGATGAATTACCCGAGTCGAGTAAACAAATTTTCCTAATCTTTCTGTTCAAGCGCCATCTAC | 0.854 RPM ratio (pull-down/input) |
| GATGATTGTTCTCCCAGCTGATGAATTCCTGGTCTCGAGTAAACAAATTTTCCTAATCTTTCTGTTCAAGCGCCATCTAC | 0.755 RPM ratio (pull-down/input) |
| GATGATTGTTCTCCCAGCTGATGAATTATTACATTCGAGTAAACAAATTTTCCTAATCTTTCTGTTCAAGCGCCATCTAC | 1.28 RPM ratio (pull-down/input) |
| GATGATTGTTCTCCCAGCTGATGAATTTCACGAGTCGAGTAAACAAATTTTCCTAATCTTTCTGTTCAAGCGCCATCTAC | 0.803 RPM ratio (pull-down/input) |
| GATGATTGTTCTCCCAGCTGATGAATTGTTTTAGTCGAGTAAACAAATTTTCCTAATCTTTCTGTTCAAGCGCCATCTAC | 1.44 RPM ratio (pull-down/input) |
| GATGATTGTTCTCCCAGCTGATGAATTAAGCCGGTCGAGTAAACAAATTTTCCTAATCTTTCTGTTCAAGCGCCATCTAC | 0.799 RPM ratio (pull-down/input) |
| GATGATTGTTCTCCCAGCTGATGAATTAGCCGCCTCGAGTAAACAAATTTTCCTAATCTTTCTGTTCAAGCGCCATCTAC | 0.874 RPM ratio (pull-down/input) |
| GATGATTGTTCTCCCAGCTGATGAATTACAGACTTCGAGTAAACAAATTTTCCTAATCTTTCTGTTCAAGCGCCATCTAC | 0.973 RPM ratio (pull-down/input) |
| GATGATTGTTCTCCCAGCTGATGAATTTGACAGGTCGAGTAAACAAATTTTCCTAATCTTTCTGTTCAAGCGCCATCTAC | 0.728 RPM ratio (pull-down/input) |
| GATGATTGTTCTCCCAGCTGATGAATTTGCATGATCGAGTAAACAAATTTTCCTAATCTTTCTGTTCAAGCGCCATCTAC | 1.05 RPM ratio (pull-down/input) |
| GATGATTGTTCTCCCAGCTGATGAATTACCTGGCTCGAGTAAACAAATTTTCCTAATCTTTCTGTTCAAGCGCCATCTAC | 0.828 RPM ratio (pull-down/input) |
| GATGATTGTTCTCCCAGCTGATGAATTGGGCGGGTCGAGTAAACAAATTTTCCTAATCTTTCTGTTCAAGCGCCATCTAC | 0.785 RPM ratio (pull-down/input) |
| GATGATTGTTCTCCCAGCTGATGAATTCGATCGGTCGAGTAAACAAATTTTCCTAATCTTTCTGTTCAAGCGCCATCTAC | 0.785 RPM ratio (pull-down/input) |
